# Measurements taken from the supplement of paper PMC8728848.
# Some of the results follow.
# B1: Nc3LysM (protein)
# chain: QFTVPPDTTAEPNTIKTCTWWHVAGSGDSCTSIASTYGITSEQFARWDMETTDSPKNPSVATACKLTVGNSYCIENNFGQDDPPTPSISSSTLIGTATTSTTASTTTGNGISTPTPIQEGMETATTTTSSGNGITTPTPTQAGMETVGNCDRFHLVKSGDQCGTIASTYGITLANFYSWNPAVGTSCQSLWLDTYVCVRTIGFVPPKTTTTTTKKPTSTTSAGGVATPTPTQPGMETVSGCKKFHKGRGNVSTVASGDQCGTIATRYGISLANFYSWNPAVGSSCQTLWLDYYVCVGR
# Experiments:
# Assay in all cases: glycan array binding signal (z-score within array); higher = stronger binding
# Conditions in all cases: glycan notation: IUPAC condensed, linker removed
# [1] = target: GalNAc(b1-4)GlcNAc(b1-2)Man
# Outline: (§1)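 Glycan array data were curated from 3228 arrays in the Consortium for Functional Glycomics database and kept only where the protein sequence was available. Glycan names were converted to IUPAC-condensed notation, and columns mapping to the same glycan were averaged. The binding signal is a within-array Z-score, averaged across arrays of the same protein sequence at different concentrations or buffers and across linkers. Negative Z-scores can be read as non-binding.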
# [2] = target: GalNAc(b1-4)GlcNAc(b1-2)Man(a1-3)[GalNAc(b1-4)GlcNAc(b1-2)Man(a1-6)]Man(b1-4)GlcNAc(b1-4)GlcNAc
# Outline: as §1
# [3] = target: GalNAc(b1-4)GlcNAc(b1-3)GalNAc(b1-4)GlcNAc
# Outline: as §1
# GalNAc(b1-4)GlcNAc6S = target: GalNAc(b1-4)GlcNAc6S
# Outline: as §1
# GalNAc(b1-6)GalNAc = target: GalNAc(b1-6)GalNAc
# Outline: as §1
# GalNAc3S(b1-4)GlcNAc = target: GalNAc3S(b1-4)GlcNAc
# Outline: as §1
# GalNAc3S(b1-4)GlcNAc3S = target: GalNAc3S(b1-4)GlcNAc3S
# Outline: as §1
# [4] = target: GalNAc3S(b1-4)[Fuc(a1-3)]GlcNAc
# Outline: as §1
# GalNAc4S6S(b1-4)GlcNAc = target: GalNAc4S6S(b1-4)GlcNAc
# Outline: as §1
# GalNAc6S(b1-4)GlcNAc = target: GalNAc6S(b1-4)GlcNAc
# Outline: as §1
# Glc(a1-4)Glc = target: Glc(a1-4)Glc
# Outline: as §1
# [5] = target: Glc(a1-4)Glc(a1-4)Glc(a1-4)Glc
# Outline: as §1
# Glc(a1-6)Glc(a1-6)Glc = target: Glc(a1-6)Glc(a1-6)Glc
# Outline: as §1
# [6] = target: Glc(a1-6)Glc(a1-6)Glc(a1-6)Glc
# Outline: as §1
# Glc(b1-4)Glc = target: Glc(b1-4)Glc
# Outline: as §1
# Glc(b1-6)Glc = target: Glc(b1-6)Glc
# Outline: as §1
# GlcA(b1-3)Gal = target: GlcA(b1-3)Gal
# Outline: as §1
# GlcA(b1-3)GlcNAc = target: GlcA(b1-3)GlcNAc
# Outline: as §1
# GlcA(b1-6)Gal = target: GlcA(b1-6)Gal
# Outline: as §1
# [7] = target: GlcA3S(b1-3)Gal(b1-4)GlcNAc(b1-2)Man
# Outline: as §1
# [8] = target: GlcA3S(b1-3)Gal(b1-4)GlcNAc(b1-3)Gal(b1-4)Glc
# Outline: as §1
# [9] = target: GlcNAc(a1-3)Gal(b1-4)GlcNAc
# Outline: as §1
# [10] = target: GlcNAc(a1-4)Gal(b1-3)GlcNAc
# Outline: as §1
# [11] = target: GlcNAc(a1-4)Gal(b1-4)GalNAc
# Outline: as §1
# [12] = target: GlcNAc(a1-4)Gal(b1-4)GlcNAc
# Outline: as §1
# [13] = target: GlcNAc(a1-4)Gal(b1-4)GlcNAc(b1-3)Gal(b1-4)Glc
# Outline: as §1
# [14] = target: GlcNAc(a1-4)Gal(b1-4)GlcNAc(b1-3)Gal(b1-4)GlcNAc
# Outline: as §1
# [15] = target: GlcNAc(a1-4)Gal(b1-4)GlcNAc(b1-3)Gal(b1-4)GlcNAc(b1-3)Gal(b1-4)GlcNAc
# Outline: as §1
# [16] = target: GlcNAc(a1-4)Gal(b1-4)GlcNAc(b1-3)Gal(b1-4)[Fuc(a1-3)]GlcNAc(b1-3)Gal(b1-4)[Fuc(a1-3)]GlcNAc
# Outline: as §1
# [17] = target: GlcNAc(a1-6)Gal(b1-4)GlcNAc
# Outline: as §1
# [18] = target: GlcNAc(b1-2)Gal(b1-3)GalNAc
# Outline: as §1
# [19] = target: GlcNAc(b1-2)Man(a1-3)[GlcNAc(b1-2)Man(a1-6)]Man(b1-4)GlcNAc(b1-4)GlcNAc
# Outline: as §1
# [20] = target: GlcNAc(b1-2)Man(a1-3)[GlcNAc(b1-2)Man(a1-6)]Man(b1-4)GlcNAc(b1-4)[Fuc(a1-6)]GlcNAc
# Outline: as §1
# [21] = target: GlcNAc(b1-2)Man(a1-3)[GlcNAc(b1-4)][GlcNAc(b1-2)Man(a1-6)]Man(b1-4)GlcNAc(b1-4)GlcNAc
# Outline: as §1
# [22] = target: GlcNAc(b1-2)Man(a1-3)[GlcNAc(b1-4)][GlcNAc(b1-2)Man(a1-6)]Man(b1-4)GlcNAc(b1-4)[Fuc(a1-6)]GlcNAc
# Outline: as §1
# [23] = target: GlcNAc(b1-2)[GlcNAc(b1-4)]Man(a1-3)[GlcNAc(b1-2)Man(a1-6)]Man(b1-4)GlcNAc(b1-4)GlcNAc
# Outline: as §1
# [24] = target: GlcNAc(b1-2)[GlcNAc(b1-4)]Man(a1-3)[GlcNAc(b1-4)][GlcNAc(b1-2)Man(a1-6)]Man(b1-4)GlcNAc(b1-4)GlcNAc
# Outline: as §1
binder,measurement,setting,value
B1,glycan array binding signal (z-score),[1],-0.236
same,glycan array binding signal (z-score),[2],0.001
same,glycan array binding signal (z-score),[3],-0.153
same,glycan array binding signal (z-score),GalNAc(b1-4)GlcNAc6S,-0.178
same,glycan array binding signal (z-score),GalNAc(b1-6)GalNAc,-0.11
same,glycan array binding signal (z-score),GalNAc3S(b1-4)GlcNAc,-0.256
same,glycan array binding signal (z-score),GalNAc3S(b1-4)GlcNAc3S,0.082
same,glycan array binding signal (z-score),[4],-0.103
same,glycan array binding signal (z-score),GalNAc4S6S(b1-4)GlcNAc,0.011
same,glycan array binding signal (z-score),GalNAc6S(b1-4)GlcNAc,-0.001
same,glycan array binding signal (z-score),Glc(a1-4)Glc,0.185
same,glycan array binding signal (z-score),[5],-0.019
same,glycan array binding signal (z-score),Glc(a1-6)Glc(a1-6)Glc,-0.143
same,glycan array binding signal (z-score),[6],0.326
same,glycan array binding signal (z-score),Glc(b1-4)Glc,-0.284
same,glycan array binding signal (z-score),Glc(b1-6)Glc,0.079
same,glycan array binding signal (z-score),GlcA(b1-3)Gal,-0.214
same,glycan array binding signal (z-score),GlcA(b1-3)GlcNAc,-0.019
same,glycan array binding signal (z-score),GlcA(b1-6)Gal,-0.075
same,glycan array binding signal (z-score),[7],0.107
same,glycan array binding signal (z-score),[8],-0.126
same,glycan array binding signal (z-score),[9],-0.2
same,glycan array binding signal (z-score),[10],-0.199
same,glycan array binding signal (z-score),[11],0.113
same,glycan array binding signal (z-score),[12],0.199
same,glycan array binding signal (z-score),[13],0.01
same,glycan array binding signal (z-score),[14],0.052
same,glycan array binding signal (z-score),[15],-0.05
same,glycan array binding signal (z-score),[16],0.109
same,glycan array binding signal (z-score),[17],-0.248
same,glycan array binding signal (z-score),[18],-0.115
same,glycan array binding signal (z-score),[19],-0.024
same,glycan array binding signal (z-score),[20],0.106
same,glycan array binding signal (z-score),[21],-0.227
same,glycan array binding signal (z-score),[22],-0.063
same,glycan array binding signal (z-score),[23],-0.147
same,glycan array binding signal (z-score),[24],0.034
